The other results are listed elsewhere or left out. Repeats are few or missing, and single values can be far off.
Key:
Assay in all cases: cell count relative to DMSO control; melanoma cells; higher = more viable cells
Conditions in all cases: library dose: standard library concentration; 72 h
G361 = test system: G361
IPC-298 = test system: IPC-298
IST-MEL1 = test system: IST-MEL1
LB2518-MEL = test system: LB2518-MEL
LOXIMVI = test system: LOXIMVI
MEL-HO = test system: MEL-HO
MZ2-MEL = test system: MZ2-MEL
MeWo = test system: MeWo
RPMI7951 = test system: RPMI7951
RVH-421 = test system: RVH-421
SkMel28 = test system: SkMel28
SkMel2 = test system: SkMel2
SkMel30 = test system: SkMel30
SkMel5 = test system: SkMel5
UACC257 = test system: UACC257
UACC62 = test system: UACC62
WM115 = test system: WM115
WM1716 = test system: WM1716
WM1745 = test system: WM1745
WM3526 = test system: WM3526
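Note: cells treated in 1,536-well plates, then fixed and DAPI-stained, with nuclei counted from automated high-throughput microscope images.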

| SMILES | cell count (G361) | cell count (IPC-298) | cell count (IST-MEL1) | cell count (LB2518-MEL) | cell count (LOXIMVI) | cell count (MEL-HO) | cell count (MZ2-MEL) | cell count (MeWo) | cell count (RPMI7951) | cell count (RVH-421) | cell count (SkMel28) | cell count (SkMel2) | cell count (SkMel30) | cell count (SkMel5) | cell count (UACC257) | cell count (UACC62) | cell count (WM115) | cell count (WM1716) | cell count (WM1745) | cell count (WM3526) |
| --- | --- | --- | --- | --- | --- | --- | --- | --- | --- | --- | --- | --- | --- | --- | --- | --- | --- | --- | --- | --- |
| CC(=O)O[C@@]12CO[C@@H]1C[C@H](O)[C@@]1(C)C(=O)[C@H](O)C3=C(C)[C@@H](OC(=O)[C@H](O)[C@@H](NC(=O)OC(C)(C)C)c4ccccc4)C[C@@](O)([C@@H](OC(=O)c4ccccc4)[C@H]21)C3(C)C [Docetaxel] + COc1cc2c(Oc3ccc4[nH]c(C)cc4c3F)ncnc2cc1OCCCN1CCCC1 [cediranib] (first compound 0.0005 µM, partner dose 2 µM) | 15% | 48.5% | 38% | 39.6% | 49.4% | 42.3% | 45.3% | 25.9% | 14.2% | 52.5% | 14.5% | 15.5% | 52.9% | 28.8% | 62.3% | 62.4% | 32.2% | 34.1% | 32.4% | 30% |
| CC(=O)O[C@@]12CO[C@@H]1C[C@H](O)[C@@]1(C)C(=O)[C@H](O)C3=C(C)[C@@H](OC(=O)[C@H](O)[C@@H](NC(=O)OC(C)(C)C)c4ccccc4)C[C@@](O)([C@@H](OC(=O)c4ccccc4)[C@H]21)C3(C)C [Docetaxel] + Cn1cc(/C=C2\C(=O)Nc3cccnc32)c2ccccc21 [GW441756] (first compound 0.0005 µM, partner dose 2 µM) | 16.1% | 38.7% | 39.5% | 39% | 79.4% | 48.6% | 40.9% | 25.7% | 25.5% | 65.7% | 15.9% | 16.1% | 35.8% | 33.3% | 57.1% | 44% | 32% | 38.9% | – | 38.1% |
| Nc1ccn([C@@H]2O[C@H](CO)[C@@H](O)C2(F)F)c(=O)n1 [gemcitabine] + O=S(=O)(c1ccccc1)N(CC(F)(F)F)c1ccc(C(O)(C(F)(F)F)C(F)(F)F)cc1 [T0901317] (first compound 0.002 µM, partner dose 7 µM) | 61.9% | 56% | 45.8% | 75.1% | 60.8% | 61.6% | 72.5% | 34.7% | 66% | 68.4% | 74.8% | 79.5% | 87.8% | 53.4% | 63.4% | 78.3% | 68.4% | 60.5% | – | 85.4% |
| Nc1ccn([C@@H]2O[C@H](CO)[C@@H](O)C2(F)F)c(=O)n1 [gemcitabine] + Oc1cc(-c2nc(-c3ccccc3)[nH]c2-c2ccncc2)ccc1Cl [L779450] (first compound 0.002 µM, partner dose 1 µM) | 50.3% | 49% | 53.9% | 63.9% | 127% | 55.3% | 85.9% | 43.8% | 58.4% | 82.2% | 49.6% | 30.6% | 94.5% | 54.5% | 95.1% | 43.4% | 52.1% | 68.6% | – | 46.4% |
| Nc1ccn([C@@H]2O[C@H](CO)[C@@H](O)C2(F)F)c(=O)n1 [gemcitabine] + O=c1cc(-c2cccc3c2Sc2ccccc2S3)oc(N2CCOCC2)c1 [KU55933] (first compound 0.002 µM, partner dose 5 µM) | 51.1% | 60.5% | 47.2% | 68.4% | 104% | 70.9% | 84.8% | 51.1% | 72.3% | 84% | 83.6% | 94.5% | 121% | 76.7% | 105% | 93.1% | 89.7% | 77.4% | – | 83.3% |
| CC(=O)O[C@@]12CO[C@@H]1C[C@H](O)[C@@]1(C)C(=O)[C@H](O)C3=C(C)[C@@H](OC(=O)[C@H](O)[C@@H](NC(=O)OC(C)(C)C)c4ccccc4)C[C@@](O)([C@@H](OC(=O)c4ccccc4)[C@H]21)C3(C)C [Docetaxel] + Cc1ccc(NC(=O)c2cccc(N(C)C)c2)cc1NC(=O)c1ccc(O)cc1 [ZM336372] (first compound 0.0005 µM, partner dose 10 µM) | 12.1% | 45.5% | 30.1% | 31.3% | 71.7% | 33.8% | 52.8% | 24.7% | 21.6% | 33.8% | 12.3% | 22.1% | 42.7% | 40% | 46.1% | 54.7% | 42.9% | 33.6% | 28.8% | 30.6% |
| CC(=O)O[C@@]12CO[C@@H]1C[C@H](O)[C@@]1(C)C(=O)[C@H](O)C3=C(C)[C@@H](OC(=O)[C@H](O)[C@@H](NC(=O)OC(C)(C)C)c4ccccc4)C[C@@](O)([C@@H](OC(=O)c4ccccc4)[C@H]21)C3(C)C [Docetaxel] + O=C(O)[C@@H]1[O][Sb](=[O])([O][Sb]2(=[O])[O][C@H]([C@H](O)CO)[C@H](O)[C@H](C(=O)O)[O]2)[O][C@H]([C@H](O)CO)[C@@H]1O [stibogluconate] (first compound 0.0005 µM, partner dose 10 µM) | 14.1% | 37.8% | 40.3% | 39.1% | 62.6% | 32.6% | 41.9% | 24.9% | 21.3% | 57.5% | 11.8% | 15.9% | 48.1% | 33.9% | 57.4% | 50.8% | 31.5% | 28.1% | 33.2% | 39% |
| CO[C@H]1C[C@@H]2CC[C@@H](C)[C@@](O)(O2)C(=O)C(=O)N2CCCC[C@H]2C(=O)O[C@H]([C@H](C)C[C@@H]2CC[C@@H](OCCO)[C@H](OC)C2)CC(=O)[C@H](C)/C=C(\C)[C@@H](O)[C@@H](OC)C(=O)[C@H](C)C[C@H](C)/C=C/C=C/C=C/1C [everolimus] + COC(=O)c1sccc1S(=O)(=O)Nc1ccc(Nc2ccccc2)cc1OC [GSK0660] (first compound 0.1 µM, partner dose 5 µM) | 59.4% | 68.5% | 73.1% | 73.1% | 104% | 70.8% | 62.9% | 62.9% | 65.9% | 89.7% | 50.9% | 58% | 65% | 47% | 91.7% | 71.2% | 78.2% | 74.8% | – | 59.8% |
| Nc1nc(F)nc2c1ncn2[C@@H]1O[C@H](CO)[C@@H](O)[C@@H]1O [fludarabine] + COc1cc2ncnc(Nc3ccc(Oc4ccccc4)cc3)c2cc1OC [SrcI1] (first compound 1 µM, partner dose 10 µM) | 73.4% | 68.7% | 76.9% | 109% | 89% | 102% | 77.4% | 70.5% | 47.9% | 97.8% | 1.84% | 2.65% | 38.1% | 31.1% | 44.4% | 83.1% | 65.1% | 86.5% | – | 38.4% |
| Nc1nc(F)nc2c1ncn2[C@@H]1O[C@H](CO)[C@@H](O)[C@@H]1O [fludarabine] + CCc1ccc(CCOc2ccc(CC3SC(=O)NC3=O)cc2)nc1 [pioglitazone] (first compound 1 µM, partner dose 10 µM) | 93.7% | 73.1% | 69% | 85.7% | 101% | 81.2% | 111% | 99% | 54% | 85.6% | 3.96% | 1.5% | 20.2% | 38.9% | 20% | 84.4% | 86.4% | 109% | – | 27.6% |
| CC(=O)O[C@@]12CO[C@@H]1C[C@H](O)[C@@]1(C)C(=O)[C@H](O)C3=C(C)[C@@H](OC(=O)[C@H](O)[C@@H](NC(=O)OC(C)(C)C)c4ccccc4)C[C@@](O)([C@@H](OC(=O)c4ccccc4)[C@H]21)C3(C)C [Docetaxel] + OCc1c[nH]c2ccccc12 [Indole-3-carbinol] (first compound 0.0005 µM, partner dose 4 µM) | 19.6% | 31.5% | 35.3% | 51.7% | 49.4% | 49.8% | 46% | 31.2% | 27.3% | 62.5% | 16.3% | 18.9% | 38.9% | 48.8% | 63.5% | 69.8% | 42.2% | 31.3% | 49.2% | 56.6% |
| Nc1ncn([C@H]2C[C@H](O)[C@@H](CO)O2)c(=O)n1 [decitabine] + CN(C)S(=O)(=O)c1ccc2c(c1)/C(=C/c1cc3c([nH]1)CCCC3)C(=O)N2 [SU6656] (first compound 0.5 µM, partner dose 2 µM) | 72% | 53.5% | 52.7% | 65.3% | 103% | 71.3% | 83.9% | 55.6% | 51.9% | 76.4% | 77% | 79.7% | 91.4% | 66.1% | 96.4% | 63.8% | 47.3% | 48.3% | 45.9% | 68.6% |
| Nc1ncn([C@H]2C[C@H](O)[C@@H](CO)O2)c(=O)n1 [decitabine] + CCCCCCCCCCCC1=C(O)C(=O)C=C(O)C1=O [Embelin] (first compound 0.5 µM, partner dose 6 µM) | 65.7% | 37.9% | 49.6% | 84% | 93.9% | 56.3% | 63.1% | 52.2% | 71.7% | 63.8% | 68.6% | 92.2% | 84.2% | 68% | 81.3% | 69.7% | 67.6% | 64.4% | – | 87.7% |
| CC(=O)O[C@@]12CO[C@@H]1C[C@H](O)[C@@]1(C)C(=O)[C@H](O)C3=C(C)[C@@H](OC(=O)[C@H](O)[C@@H](NC(=O)OC(C)(C)C)c4ccccc4)C[C@@](O)([C@@H](OC(=O)c4ccccc4)[C@H]21)C3(C)C [Docetaxel] + Oc1nc(-c2ccc(C(F)(F)F)cc2)nc2c1CSCC2 [XAV939] (first compound 0.0005 µM, partner dose 10 µM) | 17.4% | 45% | 40.9% | 53.7% | 70.1% | 42% | 43.4% | 22.1% | 21.4% | 57.9% | 25.3% | 19.9% | 49.7% | 30.6% | 60.7% | 52.4% | 40.8% | 33.5% | – | 35.6% |
| CC(=O)O[C@@]12CO[C@@H]1C[C@H](O)[C@@]1(C)C(=O)[C@H](O)C3=C(C)[C@@H](OC(=O)[C@H](O)[C@@H](NC(=O)OC(C)(C)C)c4ccccc4)C[C@@](O)([C@@H](OC(=O)c4ccccc4)[C@H]21)C3(C)C [Docetaxel] + O=S(=O)(c1ccccc1)N(CC(F)(F)F)c1ccc(C(O)(C(F)(F)F)C(F)(F)F)cc1 [T0901317] (first compound 0.0005 µM, partner dose 7 µM) | 17.1% | 24.1% | 61.8% | 33.8% | 63.6% | 47.3% | 40.1% | 21.1% | 19.1% | 71.1% | 18.4% | 15.3% | 53.2% | 41.7% | 62.4% | 60.2% | 36.8% | 37.2% | – | 29.6% |
